Reference: PubChem BioAssay AID1347165 (National Center for Advancing Translational Sciences (NCATS), 2019)
Where “and” joins values, the source holds several entries; their conditions need not be identical. Identical values can stand only once. In all, about 220,000 compounds went through this assay and about 5,700 (2.6%) were called active. Inconclusive results, whose numbers are uncertain, are shown with a selection of clear calls. Calls come from the whole dose curve; as a rule, active = well fitted inhibition curve with a large enough effect; inconclusive = small, poorly fitted or top-dose-only effect; inactive = no such curve, though single readings can be large or run the other way. Potencies beside an inconclusive call are fits to weak or partial responses and may not hold up.

biological target: Lysine-specific demethylase 5B (Homo sapiens) (UniProt Q9UGL1); assay: Primary screen for KDM5B Histone Demethylases FDH-coupled qHTS; conditions: FDH-coupled NADH fluorescence (FDH is formaldehyde dehydrogenase); activity change, negative = inhibition: at 57.7 µM (top of the series) unless noted; note: nearly all actives have a fitted effect of over 70% in size; for activity change, negative = inhibition: 0% is about no effect
How it was run: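 Measured: NADH fluorescence change, 30 min, RT. System: KDM5BΔAP 200 nM final, H3K4me3 peptide, α-KG, Fe(II), ascorbate, NAD⁺ plus FDH, pH 7.5 HEPES. Compounds: titrated, 10 min pre-incubation with enzyme.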
Potency is the fitted concentration of half-maximal effect; tags give direction and shape of the fitted curve.

Chain of UniProt Q9UGL1 (Q9UGL1 whole entry, looked up): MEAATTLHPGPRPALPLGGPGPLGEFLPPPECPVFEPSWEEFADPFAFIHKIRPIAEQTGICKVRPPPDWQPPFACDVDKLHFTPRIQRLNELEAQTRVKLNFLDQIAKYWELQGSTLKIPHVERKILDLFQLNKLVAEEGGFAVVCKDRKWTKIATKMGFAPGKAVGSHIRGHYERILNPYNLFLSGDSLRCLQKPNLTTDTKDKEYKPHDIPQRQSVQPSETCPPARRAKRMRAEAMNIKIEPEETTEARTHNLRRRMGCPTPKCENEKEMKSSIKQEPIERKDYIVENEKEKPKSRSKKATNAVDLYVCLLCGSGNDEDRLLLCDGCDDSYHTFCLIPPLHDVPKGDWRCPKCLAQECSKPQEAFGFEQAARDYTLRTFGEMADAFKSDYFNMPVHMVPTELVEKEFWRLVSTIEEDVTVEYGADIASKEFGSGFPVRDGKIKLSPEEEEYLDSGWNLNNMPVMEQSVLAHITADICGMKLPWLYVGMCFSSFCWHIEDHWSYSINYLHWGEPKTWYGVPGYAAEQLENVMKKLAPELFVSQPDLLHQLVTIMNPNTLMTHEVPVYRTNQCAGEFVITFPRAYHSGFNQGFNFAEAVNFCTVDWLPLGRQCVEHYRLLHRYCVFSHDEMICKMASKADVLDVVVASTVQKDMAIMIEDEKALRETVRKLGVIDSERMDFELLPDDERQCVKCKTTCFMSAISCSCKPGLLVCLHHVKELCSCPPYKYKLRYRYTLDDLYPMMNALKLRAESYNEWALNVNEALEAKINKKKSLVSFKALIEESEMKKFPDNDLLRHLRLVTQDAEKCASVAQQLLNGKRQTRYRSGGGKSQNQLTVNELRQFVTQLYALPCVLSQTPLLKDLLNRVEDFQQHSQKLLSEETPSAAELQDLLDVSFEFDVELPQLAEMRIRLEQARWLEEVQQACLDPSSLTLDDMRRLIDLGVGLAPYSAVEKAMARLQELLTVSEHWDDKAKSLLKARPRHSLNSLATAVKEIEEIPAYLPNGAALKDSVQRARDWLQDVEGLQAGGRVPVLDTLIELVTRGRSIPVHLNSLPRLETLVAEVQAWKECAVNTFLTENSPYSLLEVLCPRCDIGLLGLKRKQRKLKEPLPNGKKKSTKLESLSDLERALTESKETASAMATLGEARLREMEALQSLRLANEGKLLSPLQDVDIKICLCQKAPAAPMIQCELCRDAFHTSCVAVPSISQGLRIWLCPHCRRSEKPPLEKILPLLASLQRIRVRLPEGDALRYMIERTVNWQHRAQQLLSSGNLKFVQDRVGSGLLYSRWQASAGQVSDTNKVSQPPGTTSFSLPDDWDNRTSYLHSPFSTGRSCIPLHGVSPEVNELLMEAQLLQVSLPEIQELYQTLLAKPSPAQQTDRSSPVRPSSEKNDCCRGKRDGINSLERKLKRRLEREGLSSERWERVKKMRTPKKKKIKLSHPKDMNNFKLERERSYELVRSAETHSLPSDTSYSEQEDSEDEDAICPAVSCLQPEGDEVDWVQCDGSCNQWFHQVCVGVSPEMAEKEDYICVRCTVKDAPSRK

Compound | Potency | activity change, negative = inhibition
N#Cc1ccc(-n2cccc2C=O)cc1 | inconclusive: 39.8 µM [inhibitor, single point] | –
CCc1ccc(-c2cn3nc(CC)sc3n2)cc1 | – | inactive: -9.17%
O=C(Cc1cccc(Cl)c1)NCC1COc2ncncc2C(=O)N1CC1CC1 (stereo not given) | – | inactive: -44.5% [at 86.2 µM]
COc1ccccc1CNC(=O)C1CCN(C(=O)c2ncn3c2COC(c2ccc(F)cc2)C3)CC1 (stereo not given) | – | inactive: 14.5%
COc1ccccc1CNC(=O)Cn1cc2c(n1)-c1c(oc(C(=O)N3CCOCC3)c1C)CC2 | inconclusive: 15.8 µM [inhibitor, partial curve, poor fit] | –
COc1ccc(-c2nn(C)c(=O)c3ccccc23)cc1NC(=O)COc1cccc(C)c1 | – | inactive: -16.3%
Nc1nc2c(s1)C(c1cc(Cl)ccc1F)CC(=O)N2 (stereo not given) | inconclusive: 22.4 µM [inhibitor, partial curve, poor fit] | –
CC(=O)Nc1cc2cc(NS(=O)(=O)c3ccc(C)cc3)ccc2oc1=O | inconclusive: 39.8 µM [inhibitor, single point] | –
CNC(=O)[C@@H](c1ccccc1F)N1CCC[C@H]1C(=O)NC1CC1 | inconclusive: 31.6 µM [inhibitor, single point] | –
Cc1cc(C)c(C(=O)C(C)OC(=O)c2ccc(CO)cc2)cc1C (stereo not given) | – | inactive: 5.81%
COC(=O)[C@@H]1Cc2ncn(Cc3ccc(OC)cc3)c2CN1S(=O)(=O)c1cccc2cccnc12 | inconclusive: 25.1 µM [inhibitor, single point] | –
COc1ccccc1-c1cc2c(ccn2C)c(C(=O)NCc2cnccn2)n1 | active: 31.6 µM | –
CCCn1cc(S(=O)(=O)c2cccc(Cl)c2)c(=O)c2cc(F)c(N3CCOCC3)cc21 | inconclusive: 3.16 µM [inhibitor, partial curve, poor fit] | –
CCN(CC)C(=O)CSc1nnc2ccc3ccccc3n12 | inconclusive: 25.1 µM [inhibitor, partial curve, poor fit] | –
O=C1OCCN1CCNc1ccc(-c2nc(-c3ccccc3F)no2)cn1 | active: 28.2 µM | –
Cc1c(C(=O)NC(C)c2ccccc2)sc2ncnc(N(C)C3CCCCC3)c12 (stereo not given) | inconclusive: 35.5 µM [inhibitor, single point] | –
Nc1oc2ccccc2c(=O)c1-c1cccc2ccccc12 | inconclusive: 25.1 µM [inhibitor, partial curve, poor fit] | –
COc1ccc(Cl)cc1-c1ccc2c(c1)C(=O)N1CCN(C(=O)c3ccc(N(C)C)cc3)C[C@@H]1C(=O)N2 | active: 31.6 µM | –
Cc1ccc([S+](=O)([O-])NC2CCCN(c3nc4ncccc4o3)C2)cc1 (stereo not given) | inconclusive: 14.1 µM [inhibitor, partial curve, poor fit] | –
COc1ccc(CNC(=O)c2cc3c(-c4ccc(Cl)cc4)nn(C)c3s2)cc1 | inconclusive: 6.31 µM [inhibitor, partial curve, poor fit] | –
Cc1ncc2n1C(=O)N(C1CCN(Cc3ccncc3)CC1)C2 | active: 39.8 µM | –
Cc1ccc(-c2nc(CN3C(=O)C(=O)N(C(C)C)C3=O)co2)cc1 | – | inactive: -10.1%
COc1cccc(NC(=O)C(=O)NCCc2sc(-c3ccc(Cl)cc3)nc2C)c1 | – | inactive: -8.75%
CCOc1ccc(OCCSc2nc3cc(S(=O)(=O)N(C)C)ccc3o2)cc1 | – | inactive: -18.7%

Compound | Potency | activity change, negative = inhibition
CCc1cc2c(CN3CCN(c4ccccc4)CC3)cc(=O)oc2cc1O | inconclusive: 31.6 µM [inhibitor, partial curve, poor fit] and inconclusive: 14.1 µM [inhibitor, partial curve, poor fit] | –
CC(C)Cc1nc(NCc2cccnc2)c(C#N)c2c1CCCC2 | inconclusive: 11.2 µM [inhibitor, partial curve, poor fit] | –
CCC(Sc1nncn1CCOC)C(=O)c1ccc(OC)cc1 (stereo not given) | – | inactive: 10.7%
CCn1c(C)cc(C(=O)COC(=O)c2nccnc2N)c1C | inconclusive: 28.2 µM [inhibitor, partial curve, poor fit] | –
COCCCN(Cc1ccco1)C(=O)c1cc2c(s1)-c1ccccc1OC2 | inconclusive: 35.5 µM [inhibitor, partial curve, poor fit] | –
CCC(CO)NS(=O)(=O)c1cc(Cl)c(Cl)cc1Cl (stereo not given) | – | inactive: 18.5%
CC(=O)NC1CCN(Cc2cn(-c3ccc(C)cc3)nc2-c2cccc(C)c2)C1 (stereo not given) | inconclusive: 17.8 µM [inhibitor, single point] | –
O=C1CC(c2ccccc2)N(Cc2ccc(F)c(F)c2)CCCCCN1 (stereo not given) | – | inactive: 2.28%
COc1cccc(CCC(=O)NCc2nnc3cc(-c4nc(C5CC5)no4)ccn23)c1 | active: 28.2 µM | –
COc1ccccc1-c1noc(-c2ccc(N3CCOCC3)c([N+](=O)[O-])c2)n1 | inconclusive: 14.1 µM [inhibitor, partial curve, poor fit] | –
CCN(CC)C(=O)N1CCC(c2noc(-c3ccccc3)n2)C1 (stereo not given) | – | inactive: -10.3%
CS(=O)c1ccc(C(=O)NCc2ccc(-c3nc4ccccc4s3)o2)cc1 (stereo not given) | inconclusive: 20 µM [inhibitor, partial curve, poor fit] | –
COc1ccccc1N1CCN(C(=O)c2cc3c(=O)n(C)c4ccccc4c3s2)CC1 | inconclusive: 31.6 µM [inhibitor, partial curve, poor fit] | –
CCOCCCNC(=O)C(c1ccc(C)cc1)N(Cc1cccs1)C(=O)CCc1cc(C(C)(C)C)c(O)c(C(C)(C)C)c1 (stereo not given) | – | inactive: -23.2%
COc1ccc(-c2nc(SCC(=O)NC3CCCC3)c(-c3ccc(OC)cc3)[nH]2)cc1 | inconclusive: 39.8 µM [inhibitor, single point] | –
COc1ccc(CNC(=O)Cn2nc(C)n3cccc3c2=O)cc1 | – | inactive: -17.1%
CCN(CC)c1ccc(NC(=O)c2cnc3ccccc3n2)cc1 | – | inactive: 7.81%
COc1ccc(S(=O)(=O)n2nc(C)c(S(=O)(=O)N3CCCCC3)c2C)cc1 | inconclusive: 25.1 µM [inhibitor, partial curve, poor fit] | –
CCS(=O)(=O)Nc1ccc(-c2nc(C3CCOC3)no2)cc1 (stereo not given) | inconclusive: 22.4 µM [inhibitor, single point] | –
COc1ccc(-c2nc(N3CCOCC3)cc3c2CN(CC2CC2)C3=O)cn1 | active: 35.5 µM | –
O=C(Cc1cccc(Cl)c1)NC1CCN(c2cc(-c3cccs3)[nH]n2)C1 (stereo not given) | active: 3.98 µM | –
COCCN1CCCC2(CCN(C(=O)c3ccccc3)C2)C1 (stereo not given) | – | inactive: -10%
O=S(=O)(Nc1ccc2cn[nH]c2c1)c1ccccc1C(F)(F)F | – | inactive: 5.94%
O=C(NC1CC1)c1cc2c(=O)[nH]c(-c3ccccc3)cn2n1 | active: 28.2 µM | –

Compound | Potency | activity change, negative = inhibition
CCC(=O)N1Cc2ccccc2CC2(CCCN2Cc2ccccc2)C1 (stereo not given) | inconclusive: 56.2 µM [inhibitor, partial curve] | –
CN(C)S(=O)(=O)c1ccc2c(c1)cc(C(=O)NCCc1ccco1)n2C | – | inactive: 3.29%
COc1ccc(-c2ocnc2C(=O)Nc2cccc(Cl)c2)cc1OC | inconclusive: 35.5 µM [inhibitor, partial curve, poor fit] | –
COC(=O)c1cccc(C(=O)NCc2ccccc2)c1 | – | inactive: 3.49%
CCc1cccc(NC(=O)c2cc3n(n2)CC(c2ccc(Cl)cc2)OC3)c1 (stereo not given) | inconclusive: 25.1 µM [inhibitor, partial curve] | –
COc1ccc(CN2C[C@@H]3C(=O)N(C)C(=O)[C@@H]3C2)c(OC)c1 | – | inactive: -12.2%
COc1cccc(-c2n[nH]c3c2CC(=O)N(Cc2ccccn2)C3)c1 | inconclusive: 35.5 µM [inhibitor, single point] | –
COc1ccc2cc(C(=O)N3CCC(C(C)C(=O)NCCCN4CCCC4)CC3)[nH]c2c1 (stereo not given) | – | inactive: 13.5%
Cc1ccc(N2NC3(CCCCCC3)NC2=S)cc1 | inconclusive: 39.8 µM [inhibitor, single point] | –
CCN1CCN(c2nc3c(c(=O)[nH]c(=O)n3C)n2CC(O)COc2ccccc2)CC1 (stereo not given) | inconclusive: 39.8 µM [inhibitor, single point] | –
CCOc1ccccc1C(=O)N1CCC2(CC1)CN(c1ncccn1)CC2CO (stereo not given) | active: 31.6 µM | –
CCCOc1ccc(/C=C/C(=O)Nc2sc(C)c(C)c2C(=O)OCC)cc1OC | inconclusive: 17.8 µM [inhibitor, partial curve, poor fit] | –
CCOc1ccc(S(=O)(=O)NCCc2csc(-c3ccc(Cl)cc3)n2)cc1 | inconclusive: 22.4 µM [inhibitor, partial curve, poor fit] | –
CC(C)=CCC/C(C)=C/C=N/NC(=O)Nc1ccccc1 | inconclusive: 12.6 µM [inhibitor, partial curve, poor fit] | –
O=Cc1cccc(-c2ccc(C(=O)O)o2)c1 | active: 126 µM | –
Cc1cc(SCc2cc(Cl)c3c(c2)OCCCO3)nc(C)n1 | – | inactive: -11.8%
CC(C)CCNC(=O)CN1C(=O)CCn2nc(-c3cn(C)c4ccccc34)cc21 | inconclusive: 14.1 µM [inhibitor, partial curve, poor fit] | –
Cc1nc2ncccn2c1C(=O)N1CCC2(CCCN(C)C2=O)C1 (stereo not given) | active: 28.2 µM | –
CCOc1c(OC)cccc1-c1nc2ccccc2s1 | inconclusive: 28.2 µM [inhibitor, partial curve, poor fit] | –
N#CC1=C(Nc2ccccc2Cl)SC(c2ccccc2O)NC1=O (stereo not given) | inconclusive: 17.8 µM [inhibitor, partial curve, poor fit] | –
CCCC(=O)Nc1ccc2nc(N3CCN(C(=O)OCC)CC3)cc(C(=O)O)c2c1 | inconclusive: 20 µM [inhibitor, partial curve, poor fit] | –
Cc1cc(C)cc(Nc2ncnc3c2nc2n3CCCC2)c1 | inconclusive: 22.4 µM [inhibitor, partial curve, poor fit] | –
